One molecule from PMC2662774 (2008) can be followed below.

The assay has as its target T1, CXCR4 1-38 (sY21/12/7 P38) 1-38 (Homo sapiens, UniProt P61073).
T1 chain: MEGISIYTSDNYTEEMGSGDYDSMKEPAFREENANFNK
As to the kind of experiment: NMR.

B1: SDF-1α (protein)
chain: not shown
One may read the Kd as the free concentration of one partner at which half of the binding sites on the other are occupied at equilibrium, for simple one-to-one binding. High values mean weaker binding, low ones tighter binding. Molecule B1 yielded a Kd of 200 nM.
